Source: PubChem BioAssay AID1963576 (National Center for Advancing Translational Sciences (NCATS), 2024)
Hit rate of the full screen: of about 46,000 compounds, about 60 (0.1%) were called active. About 3% were inconclusive and are not listed. The call rests on the fitted dose curve; in most records, active means well fitted inhibition curve with a large enough effect; inconclusive means small, poorly fitted or top-dose-only effect; inactive means no such curve, though single readings can be large or run the other way. Some of the results follow.

Experiment: Primary qHTS assay for Inhibitors of ovarian cancer metastasis using an organotypic tumor microenvironment (TME) model. Further: nearly all actives have a fitted effect of over 65% in size.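 On activity change, negative = inhibition: plate controls were DMSO wells for no effect and tomatine positive control wells for full effect.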
Conditions: SKOV3ip1-GFP adhesion/invasion on 3D omental model, fluorescence; series mostly up to 45.8 µM; activity change, negative = inhibition: at the top concentration
How it was run: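 qHTS, 4-pt dose (0.36-46 umol/L); SKOV3ip1-GFP, 1,200 cells/well, no FBS; primary omental fibroblast/mesothelial co-culture 48 h pre-grown; 2 h RT + 16 h 37 C; PBS wash, 4% PFA; GFP count 488/509 nm.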

Row | Structure (SMILES) | activity change, negative = inhibition | outcome
1 | COc1ccccc1CNc1ncnc2c1c(-c1ccccc1)cn2-c1cccc(C)c1 | inactive: -14.8% | 
2 | COc1ccccc1C(=O)Nc1nc2nc(C)c(Cc3ccccc3)c(=O)n2[nH]1 | inactive: -3.65% | 
3 | CC1CCN(S(=O)(=O)c2ccc3c(c2)N(CC(=O)N2CCN(c4ccccc4)CC2)C(=O)CO3)CC1 |  | inactive
4 | Cc1ccc(NC(=O)Cn2c(-c3cncs3)nc3ccccc32)cc1Br | inactive: -1.64% | 
5 | CCCc1nccn1S(=O)(=O)c1cc(Br)ccc1OC | inactive: -6.11% | 
6 | COc1ccc(NC(=O)CN2C(=O)CCc3cc(S(=O)(=O)N4CCOCC4)ccc32)cc1Cl |  | inactive
7 | Cc1nn(CCCC(=O)Nc2cccc(F)c2)c(=O)c2c1sc1ccccc12 | inactive: -0.284% | 
8 | CCN(C(=O)Cn1c(=O)n(CC2CCC(C(=O)NC)CC2)c(=O)c2sccc21)c1ccccc1 (centres undefined) | inactive: 0.893% | 
9 | COc1cc2c(C(=O)N(C)c3cc(Cl)ccc3OC)cn(CC(C)C)c(=O)c2cc1OC |  | inactive
10 | O=C(Nc1ccccc1)c1cn(-c2ccccc2)nc1-c1ccccc1 | inactive: 5.14% | 
11 | Cc1cccc(-n2c3nc(=O)[nH]c(=O)c-3cc3c(C)nn(-c4ccccc4)c32)c1C | inactive: -5.67% | 
12 | COc1ccccc1NC(=O)CSC1=Nc2ccccc2N=C(c2ccc(F)cc2)C1 |  | inactive
13 | CCc1ccc(CNC(=O)COc2cc(=O)n(CC)c3ccccc23)cc1 |  | inactive
14 | CC(=O)N1CCCC1c1nc2ccccc2n1Cc1cccc(Cl)c1 (centres undefined) | inactive: -2.98% | 
15 | COC(=O)c1c(NC(=O)c2nc(SCc3cccc(C)c3)ncc2Cl)sc2c1CCCC2 |  | inactive
16 | COc1ccc(-n2nnc(-c3nc(-c4cccs4)no3)c2N)cc1OC |  | inactive
17 | COc1ccc(-c2nc(C)c(CCNC(=O)C(=O)Nc3ccccc3C#N)s2)cc1OC | inactive: -1.6% | 
18 | COc1cc(C2CC(=O)c3c([nH]c(C(=O)OCC4CCCCC4)c3C)C2)cc(OC)c1OC (centres undefined) | inactive: 18.4% | 
19 | CC1=C(c2ccc(F)cc2)S(=O)(=O)NC1=NCc1ccccc1F | inactive: 12.7% | 
20 | Cc1ccc(-c2noc(-c3ccc(NCc4ccco4)c([N+](=O)[O-])c3)n2)cc1 | inactive: -9.33% | 
21 | COc1cc(NC(=O)CC(c2ccc(C)cc2)N2Cc3ccccc3C2=O)cc(OC)c1 (centres undefined) | inactive: -17.3% | 
22 | Cc1ccccc1NS(=O)(=O)c1ccc2[nH]cc(C(=O)NC(C)c3ccccc3)c(=O)c2c1 (centres undefined) | inactive: 6.4% | 
23 | CCc1nn2c(=O)cc(COC(=O)c3ccc(NC(=O)c4cccs4)cc3)nc2s1 | inactive: 21.8% | 
24 | COc1ccccc1C(=O)Nc1nc2nc(-c3ccccc3)cc(=O)n2[nH]1 | inactive: 7.31% | 

Row | Structure (SMILES) | activity change, negative = inhibition | outcome
25 | c1cc(CN2CCCNCCNCCCNCC2)ccc1CN1CCCNCCNCCCNCC1 | inactive: 0.847% | 
26 | COc1ccccc1CCNC(=O)C(=O)NCC(c1cccs1)S(=O)(=O)c1ccc(C)cc1 (centres undefined) | inactive: 2.51% | 
27 | COc1ccc(Nc2nnc(-c3cc4c(ccc5ccccc54)oc3=O)s2)cc1 | inactive: 1.27% | 
28 | Cc1ccc(C)c(CNC(=O)C2CCN(c3nc4ccccc4nc3C(F)(F)F)CC2)c1 |  | inactive
29 | CCOc1ccccc1CNC(=O)Cn1ncn2nc(-c3cccs3)cc2c1=O | inactive: -2.76% | 
30 | O=C1C(=O)N(C2CCN(C(=O)c3ccc(Cl)cc3)CC2)CCN1Cc1ccc(F)cc1 | inactive: 31.8% | 
31 | Cc1cc(Nc2ccccc2C)nc(-n2nc(C)cc2C)n1 | inactive: -7.03% | 
32 | Cc1n[nH]c(C)c1S(=O)(=O)N1CCCC(C(=O)Nc2ccc(Br)cc2)C1 (centres undefined) | inactive: 6.06% | 
33 | COc1ccc(CCNC(=O)c2cc(C)nc3c2c(C)nn3-c2ccc(C)cc2)cc1OC | inactive: -7.38% | 
34 | CCNC(=O)c1ccc2nc(CCc3ccccc3)oc2c1 |  | inactive
35 | CCN(CC)CCCNC(=O)c1ccc2nc(N3CCCCC3)sc2c1 | inactive: 9.84% | 
36 | COc1ccc2nc(N(Cc3cccnc3)C(=O)C3COc4ccccc4O3)sc2c1 (centres undefined) |  | inactive
37 | CCOc1ccccc1CN1CCc2nc(N3CCN(c4ccccc4F)CC3)ncc2C1 | inactive: 1.14% | 
38 | CCOc1ccccc1C(=O)N(Cc1cc(OC)c(OC)c(OC)c1)C1CCS(=O)(=O)C1 (centres undefined) | inactive: -0.498% | 
39 | O=C(CN1CCSc2ccccc21)NCc1ccccc1F |  | inactive
40 | CCCN(C(=O)c1cn(C)c(=O)c2ccccc12)c1ccccc1C | inactive: 22.7% | 
41 | Cc1nc(CC(=O)Nc2cc(Cl)ccc2C)cs1 | inactive: -0.989% | 
42 | COc1cccc(C(=O)CC2(O)C(=O)Nc3ccc(Cl)cc32)c1 (centres undefined) | inactive: 2.27% | 
43 | COc1cc(C)ccc1OCCSc1nc(-c2cccc(C)c2)nc2cc(=O)[nH]n12 |  | inactive
44 | COc1ccc(N2CCN(S(=O)(=O)CCNC(=O)C3CC(=O)N(c4ccccc4)C3)CC2)cc1 (centres undefined) | inactive: -7.62% | 
45 | CCCOc1ccc(CN(C(=O)c2cc(=O)c3ccc(C)cc3o2)C2CCS(=O)(=O)C2)cc1 (centres undefined) | inactive: 7.72% | 
46 | Cc1ccc(N(C)C(=O)Cn2cnc3onc(-c4ccc(F)cc4)c3c2=O)cc1C |  | inactive
47 | O=C(CCS(=O)(=O)c1cc(Br)cc2c1N(C(=O)C1CC1)CC2)N1CCN(c2ccc(F)cc2)CC1 | inactive: 16.3% | 
48 | COc1cc(C2c3c(oc4ccc(F)cc4c3=O)C(=O)N2c2nc(C)c(C)s2)cc(OC)c1OC (centres undefined) | inactive: 2.04% | 

Row | Structure (SMILES) | activity change, negative = inhibition | outcome
49 | CCOc1ccc(NC(=O)CSc2nc3c(c(=O)[nH]2)CCCC3)cc1 | inactive: 5.97% | 
50 | CC(C)n1cnc2c(NCCc3ccc(O)cc3)nc(-c3csc4ccccc34)nc21 | inactive: -72% | 
51 | COc1ccc(C)cc1NC(=O)COCc1cc(-c2cccs2)on1 | inactive: 7.2% | 
52 | COc1ccc(CCNC(=O)CCCn2c(=O)c3ccccc3n(Cc3ccc(C)cc3)c2=O)cc1OC | inactive: 13.5% | 
53 | Cc1ccc2ncc(C(=O)NCCc3ccc(S(N)(=O)=O)cc3)c(=O)n2c1 |  | inactive
54 | CC1(C)[C@H](O[C@H]2O[C@H](C(=O)O)[C@@H](O)[C@H](O)[C@H]2O[C@@H]2O[C@H](C(=O)O)[C@@H](O)[C@H](O)[C@H]2O)CC[C@@]2(C)[C@H]1CC[C@]1(C)[C@H]2C(=O)C=C2[C@H]3C[C@@](C)(C(=O)O)CC[C@]3(C)CC[C@]21C | inactive: -15.4% | 
55 | O=C(c1ccc(Cl)cc1)N(Cc1ccco1)Cc1ccco1 |  | inactive
56 | CCOc1ccccc1Nc1sc(C(=O)c2ccccc2)c(N)c1C(=O)NCCc1ccccc1 | inactive: 6.29% | 
57 | COc1cccc(CNC(=O)CNS(=O)(=O)c2ccc3nc(C)sc3c2)c1 |  | inactive
58 | COc1ccccc1OCCn1c(COc2cc(C)ccc2C)nc2ccccc21 | inactive: -2.29% | 
59 | Cc1nn2c(C)c(C(=O)N3CCN(c4ccccc4)CC3)cnc2c1-c1ccccc1 | inactive: -3.01% | 
60 | CC(C)CNc1nc(NC(C)(C)C)nc(Oc2ccc(=O)n(-c3ccccc3)n2)n1 | inactive: -29.3% | 
61 | Cc1ccccc1NC(=O)c1c(C)oc2ccc(O)c(CN3CCCC3)c12 | inactive: 3.95% | 
62 | COc1cccc(-c2cc(C(=O)Nc3cc(C)nn3-c3ccccc3)no2)c1 | inactive: -19.9% | 
63 | CCN(CC)S(=O)(=O)c1nnc(NC(=O)c2ccccc2Cl)s1 | inactive: 4.68% | 
64 | COc1ccc(NC(=O)Cn2c(=O)n(CC3CCCO3)c(=O)c3ccccc32)c(OC)c1 (centres undefined) | inactive: 2.77% | 
65 | COc1cc(OC)cc(C(=O)Nc2ccc3oc(-c4ccccc4C)nc3c2)c1 | inactive: 3.08% | 
66 | CCC(=O)Nc1ccc(C)cc1-c1nc2ccccc2n(CC(=O)Nc2ccccc2Cl)c1=O | inactive: -13.6% | 
67 | COc1ccc(-c2cc(C(F)(F)F)nc(SCC(=O)N(C)Cc3ccccc3)n2)cc1OC | inactive: -4.62% | 
68 | CCOc1ccc(CNC(=O)c2ccc3c(c2)nc2n3CCOC2)cc1 | inactive: 7.09% | 
69 | COc1ccc(N(C(=O)c2ccccc2F)S(=O)(=O)c2ccc3c(c2)n(C)c(=O)n3C)cc1 | inactive: 1.27% | 
70 | CCN1CCN(CCCNC(=O)c2cc3c(=O)n(CC)c4ccccc4c3s2)CC1 | inactive: -24.4% | 
71 | Cc1c(CNCc2ccc(OC(C)C)cc2)c(C(=O)O)c(C)n1Cc1ccc(Cl)cc1 |  | inactive
72 | CC(=O)N1CCOc2cc(S(=O)(=O)NCc3ccc(C)cc3)c(C)cc21 | inactive: -8.84% | 

Row | Structure (SMILES) | activity change, negative = inhibition | outcome
73 | Cc1ccc(C)c2sc(NC(=O)c3ccc(S(=O)(=O)N4CCCC4)cc3)nc12 | inactive: -4.9% | 
74 | Cc1ccc(NC(=O)c2oc3ccc(S(=O)(=O)N4CCCCC4)cc3c2C)cc1C | inactive: 0.634% | 
75 | O=C(c1cc2ccc3cccnc3c2[nH]1)N1CCN(c2cccc(C(F)(F)F)c2)CC1 | inactive: -3.37% | 
76 | COc1ccc2c(c1)c1c(c(=O)n(CCc3ccccc3)c(=O)n1Cc1ccccc1)n2C |  | inactive
77 | CCOC(=O)CSc1nc2sc3c(c2c(=O)n1Cc1ccccc1)CCC(C(C)(C)C)C3 (centres undefined) | inactive: 8.78% | 
78 | COc1ccc(CNC(=O)c2c(Nc3ccc(OC)cc3OC)sc(C(=O)c3ccc(Cl)cc3)c2N)cc1 | inactive: 6.05% | 
79 | Cc1ccc(C)c(CN2C(=O)c3ccccc3S(=O)c3ccc(C(=O)N4CCC(C)CC4)cc32)c1 (centres undefined) | inactive: -3.89% | 
80 | COc1ccc(CNc2oc(-c3ccc(COc4ccc(Cl)cc4)o3)nc2C#N)cc1 | inactive: 1.29% | 
81 | CCOC(=O)c1cccc(NC(=O)c2cc(S(=O)(=O)N3CCCCCC3)cn2C)c1 | inactive: 29.2% | 
82 | COc1ccc2nc(S(=O)Cc3ncc(C)c(OC)c3C)[nH]c2c1 (centres undefined) | inactive: -16.9% | 
83 | COc1cc(O)ccc1C1CC(=O)Nc2c1c(=O)nc(SCc1ccccc1C)n2C (centres undefined) | inactive: 3.36% | 
84 | CCN1c2ccccc2-c2nc(SCC(=O)Nc3cccc(C(F)(F)F)c3)ncc2S1(=O)=O | inactive: -3.71% | 
85 | CCC(C)(C)NS(=O)(=O)c1cc(-c2cc(C)no2)ccc1C | inactive: -2.44% | 
86 | COc1ccc(CN(C(=O)c2cc3ccccc3oc2=O)C2CCS(=O)(=O)C2)cc1 (centres undefined) | inactive: 9.27% | 
87 | Cc1cc(C)cc(Nc2cc(C(=O)NCCCN(Cc3ccccc3)C(C)C)c3ccccc3n2)c1 | inactive: -1.76% | 
88 | CCOc1ccc(CNC(=O)c2cc(=O)[nH]c3ccc(S(=O)(=O)N4CCCCC4)cc23)cc1 | inactive: 6.29% | 
89 | CC(C)OCCCNC(=O)CCCn1c(=O)[nH]c2ccsc2c1=O | inactive: 20.6% | 
90 | CCNC(=O)c1cc2c(-c3cc(OCCN4CCCC4)c(Cl)cc3Cl)nc(N)nc2s1 | inactive: 18.5% | 
91 | Cc1ccc(CNC(=O)C2CCC(CNS(=O)(=O)c3ccc4c(c3)CCCC(=O)N4)CC2)cc1 (centres undefined) | inactive: -3.28% | 
92 | Cc1cccc(-c2nc(CCNC(=O)c3ccco3)cs2)c1 |  | inactive
93 | CCOC(=O)c1ccc(NC(=O)CCS(=O)(=O)c2ccc(C)cc2)cc1 | inactive: 2.73% | 
94 | COc1ccc(NC(=O)CN2CCCN(S(=O)(=O)c3ccc(Br)cc3)CC2)c(OC)c1 | inactive: 9.96% | 
